Variants at the background level are over-represented here.
B1: TPR 5TU (parent)
chain: GGAUCUUCUCGAUCUAACAAAAAAGACAAAUCUGCCACAAAGCUUGAGAGCAUCUUCGGAUGCAGAGGCGGCAGCCUUCGGUGGCGCGAUAGCGCCAACGUUCUCAACUAUGACACGCAAAACGCGUGCUCCGUUGAAUGGAGUUUAUCAUG

Variants of: B1
Assay: polymerase ribozyme fitness, log enrichment relative to wild type (log ratio); higher = more active; in vitro selection for triplet polymerase activity
How it was run: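 Mutant libraries of each subunit of a heterodimeric triplet polymerase ribozyme were built by PCR and transcribed. Each library went through one round of in vitro selection in triplicate: annealing with biotinylated primer, partner subunit and triplets, frozen incubation at −7 °C, gel excision of extended constructs, streptavidin-bead capture and RT-PCR. Input and output libraries were Illumina-sequenced; only genotypes with ≥10 input reads and ≥1 read per output were kept. Fitness is log2(genotype enrichment/wild-type enrichment), using inverse-variance-weighted replicate averages.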

First: C38A A89G C95G G124A
Second: C38U C43U C54U G67U G80U C85G C87U G124A
The “polymerase ribozyme fitness (log ratio)” value of the first is higher: -2.76 for the first, at most -4.2 for the second.

C38A C79A G140C and C38G A41U C79U G92C C123A cannot be ordered by “polymerase ribozyme fitness (log ratio)” value: at most -4.2 for the first, at most -4.2 for the second.

C38A U53A C57G C87A C93G A147C and C38G G48C G86A G92A cannot be ordered by “polymerase ribozyme fitness (log ratio)” value: at most -4.2 for the first, at most -4.2 for the second.

First: C38U C51U U56A G94U C105A A121U
Second: C38G U45G U56A C93G C123A U127G
The “polymerase ribozyme fitness (log ratio)” value of the first is higher: -4.15 for the first, at most -4.2 for the second.

C38A G42C A52G C76U and C38A C51U C93G cannot be ordered by “polymerase ribozyme fitness (log ratio)” value: at most -4.2 for the first, at most -4.2 for the second.

C38G U77G C103A G126A and C38A U53A U56G G88U G124A cannot be ordered by “polymerase ribozyme fitness (log ratio)” value: at most -4.2 for the first, at most -4.2 for the second.

C38U A40U G58U U90C G100C C105G C118A and C38U A52G A110C cannot be ordered by “polymerase ribozyme fitness (log ratio)” value: at most -4.2 for the first, at most -4.2 for the second.

C38A G58U C69A C96A C114A and C38G A40U U55A G92A U127C cannot be ordered by “polymerase ribozyme fitness (log ratio)” value: at most -4.2 for the first, at most -4.2 for the second.

Going from C38U A49C A66G A138U U144C to C38A U148A, the “polymerase ribozyme fitness (log ratio)” value rises from at most -4.2 to -4.04.

Compared with C38U A41C G42U C76G G81C C99U G133U, C38A U61A C96G is higher in “polymerase ribozyme fitness (log ratio)” value: at most -4.2 for the first, -2.38 for the second.

Compared with C38G C75G G84C C103A, C38U A106U U145C is higher in “polymerase ribozyme fitness (log ratio)” value: at most -4.2 for the first, -1.24 for the second.

Going from C38U C95G to C38G A89G C93A C116G G128A U134G, the “polymerase ribozyme fitness (log ratio)” value falls from -1.3 to at most -4.2.

First: C38U A107C
Second: C38U A41U G94A
The “polymerase ribozyme fitness (log ratio)” value of the first is lower: -3.45 for the first, -1.15 for the second.

C38G G58C U101G C105G and C38G C87A A107C C118A G136U G141A C149U cannot be ordered by “polymerase ribozyme fitness (log ratio)” value: at most -4.2 for the first, at most -4.2 for the second.

Compared with C38G A40G A49G A60U C93A A121G, C38G C85G C105U A121U G124A is higher in “polymerase ribozyme fitness (log ratio)” value: at most -4.2 for the first, -2.25 for the second.

Going from C38U A39C C95U to C38A C87U A107U, the “polymerase ribozyme fitness (log ratio)” value falls from -2.34 to -4.17.

C38G A98U U109C C116A C125G and C38U A40C A60U G68A C93G G117A cannot be ordered by “polymerase ribozyme fitness (log ratio)” value: at most -4.2 for the first, at most -4.2 for the second.

C38U C63U A91G C149G and C38U A60C U77G C87U G94A U101A C105A cannot be ordered by “polymerase ribozyme fitness (log ratio)” value: at most -4.2 for the first, at most -4.2 for the second.

Compared with C38A U44A A47U G86U C87G G100A A107G C118U, C38U C76U G81C is higher in “polymerase ribozyme fitness (log ratio)” value: at most -4.2 for the first, -0.0752 for the second.

First: C38U C76U C85G C96A C103A C114U C132U
Second: C38G C43U U56A C57U
The “polymerase ribozyme fitness (log ratio)” value of the first is higher: -4.19 for the first, at most -4.2 for the second.

C38A G92U C116U G128U C132U and C38U A52C G67C U77G U109G cannot be ordered by “polymerase ribozyme fitness (log ratio)” value: at most -4.2 for the first, at most -4.2 for the second.

C38U C43U G92U C95U and C38A C69A G133C A150C cannot be ordered by “polymerase ribozyme fitness (log ratio)” value: at most -4.2 for the first, at most -4.2 for the second.

Compared with C38U A60C C85U C118U G136A, C38G C69U G84U A98U G124U A137G is lower in “polymerase ribozyme fitness (log ratio)” value: -0.726 for the first, at most -4.2 for the second.

C38U A49C U55A C63G C87U C95U U109G A142C and C38U A41G C93U U102G G117C G124C U145G U146A cannot be ordered by “polymerase ribozyme fitness (log ratio)” value: at most -4.2 for the first, at most -4.2 for the second.

C38G A64U G81C G92U A97C U102C A107U U130A and C38A C51U U56G A91U G136C U145A cannot be ordered by “polymerase ribozyme fitness (log ratio)” value: at most -4.2 for the first, at most -4.2 for the second.

Compared with C38A C95G C99U A138G, C38U A41C C132U is higher in “polymerase ribozyme fitness (log ratio)” value: at most -4.2 for the first, -1.49 for the second.

Going from C38U C76A G84A G94A U135G G141A U144C to C38G C85A C116A A120G, the “polymerase ribozyme fitness (log ratio)” value rises from at most -4.2 to -2.28.

C38G A60C C85A C93U C96U C103G and C38U C57A G74U G83C cannot be ordered by “polymerase ribozyme fitness (log ratio)” value: at most -4.2 for the first, at most -4.2 for the second.

C38U A64G C93U U127G and C38U C57A A60U C79U G92C A119C A150C cannot be ordered by “polymerase ribozyme fitness (log ratio)” value: at most -4.2 for the first, at most -4.2 for the second.

Going from C38U A60G C75U C87A C96G to C38A C76A A97G U134G, the “polymerase ribozyme fitness (log ratio)” value rises from at most -4.2 to -3.3.

Going from C38A U56A to C38U A52U G62A G84U C85G, the “polymerase ribozyme fitness (log ratio)” value falls from -0.602 to at most -4.2.

First: C38U A47C U55G C75U G86U A89G C108U C118U
Second: C38G C57A A115C U144G
The “polymerase ribozyme fitness (log ratio)” value of the first is lower: at most -4.2 for the first, -1.02 for the second.

C38U C51A G67C C96G A150U and C38A U53G A64G G86U U90A C129A U130C G140U cannot be ordered by “polymerase ribozyme fitness (log ratio)” value: at most -4.2 for the first, at most -4.2 for the second.

C38A G71A C85G G92U G143A and C38A G62U G83A A91U C125U U148C G152U cannot be ordered by “polymerase ribozyme fitness (log ratio)” value: at most -4.2 for the first, at most -4.2 for the second.

Compared with C38A C76U A110G A113G G152A, C38A C96G is higher in “polymerase ribozyme fitness (log ratio)” value: at most -4.2 for the first, -0.458 for the second.

First: C38U A40G
Second: C38G G92C C95U
The “polymerase ribozyme fitness (log ratio)” value of the first is lower: -2.26 for the first, -1.62 for the second.

Going from C38G A41C G68A G81A C85U C95U C116G to C38U A47U A121U U135A A142U, the “polymerase ribozyme fitness (log ratio)” value rises from at most -4.2 to -2.42.

C38U C79A A107C C114U A142U and C38G U55A U111C G141A U145C cannot be ordered by “polymerase ribozyme fitness (log ratio)” value: at most -4.2 for the first, at most -4.2 for the second.

Going from C38U to C38G, the “polymerase ribozyme fitness (log ratio)” value falls from 0.0316 to -0.296.

C38A G62U C75A C85U and C38U C87A U104G cannot be ordered by “polymerase ribozyme fitness (log ratio)” value: at most -4.2 for the first, at most -4.2 for the second.

Going from C38G A40C C93A U139C to C38U C79U A121U C125A G143U, the “polymerase ribozyme fitness (log ratio)” value rises from at most -4.2 to -3.92.

C38U A47U C54A A73G U78A A91U C114A A115U C116U G136C U146G and C38A C69U G83A A91G U109G cannot be ordered by “polymerase ribozyme fitness (log ratio)” value: at most -4.2 for the first, at most -4.2 for the second.
